Measured values from PubChem BioAssay AID588591 (National Center for Advancing Translational Sciences (NCATS), 2011).
The whole screen tested about 390,000 compounds, of which about 4,700 (1.2%) were called active. This list was built around the results that the source calls inconclusive (neither active nor inactive); the mix of calls is not that of the screen. Calls follow the shape of the dose curve; as a rule, active = well fitted inhibition curve with a large enough effect; inconclusive = small, poorly fitted or top-dose-only effect, or another doubt; inactive = no such curve, though single readings can be large or run the other way. A potency beside an inconclusive call is a rough fit, not a confirmed value.

Target: DNA polymerase eta (Homo sapiens) (UniProt Q9Y253)
Sequence of UniProt Q9Y253 (Q9Y253 whole entry, looked up): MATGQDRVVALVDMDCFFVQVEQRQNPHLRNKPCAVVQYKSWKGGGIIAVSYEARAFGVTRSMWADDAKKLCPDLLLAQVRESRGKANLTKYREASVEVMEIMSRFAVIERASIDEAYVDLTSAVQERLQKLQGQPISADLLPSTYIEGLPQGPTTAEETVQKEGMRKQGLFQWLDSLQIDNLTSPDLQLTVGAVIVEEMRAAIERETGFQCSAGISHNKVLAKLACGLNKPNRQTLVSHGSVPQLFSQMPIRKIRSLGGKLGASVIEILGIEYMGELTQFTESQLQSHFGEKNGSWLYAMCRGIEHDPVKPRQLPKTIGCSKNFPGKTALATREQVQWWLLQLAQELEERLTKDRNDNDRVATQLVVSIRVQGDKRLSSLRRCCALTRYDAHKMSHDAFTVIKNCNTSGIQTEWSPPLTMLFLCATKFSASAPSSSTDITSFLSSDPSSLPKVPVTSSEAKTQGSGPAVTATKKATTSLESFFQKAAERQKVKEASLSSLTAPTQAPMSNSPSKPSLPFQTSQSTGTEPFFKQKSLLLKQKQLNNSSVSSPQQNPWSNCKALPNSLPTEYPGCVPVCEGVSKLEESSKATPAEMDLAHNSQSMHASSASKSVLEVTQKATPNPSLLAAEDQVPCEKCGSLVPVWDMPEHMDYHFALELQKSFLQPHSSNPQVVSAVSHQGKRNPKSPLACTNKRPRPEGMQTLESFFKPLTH
Assay: qHTS for Inhibitors of Polymerase Eta
Conditions: recombinant Pol eta, fluorescent DNA replication assay; series mostly up to 114 µM; activity change, negative = inhibition: at the top concentration
Procedure, shortened: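 Pol eta at 10 nM preincubated with compounds 15 min at room temperature; reaction started with fluorescent substrate (50 nM final) and read kinetically at 0 and 10 min.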
% is scaled to controls: 0 for no effect and ±100 for the full control effect; potency is read from the fitted curve at half-maximal effect; tags tell the direction and shape of the fitted curve.

SMILES | activity change, negative = inhibition | Potency
Cc1ccc(Cn2cc3c(n2)-c2c(oc(C(=O)Nc4ccc(F)cc4F)c2C)CC3)cc1 | inactive: -13.8% | 
COc1ccccc1N(/N=C1\Sc2ccccc2C1=O)C(C)=O |  | active: 89.1 µM
Cc1cc(-c2ccccc2)nc2cc(C(=O)Nc3cc(C(F)(F)F)ccc3Cl)nn12 |  | inconclusive: 100 µM [inhibitor, single point]
Fc1ccc(-c2ccc(-c3nn4c(-c5ccco5)nnc4s3)o2)cc1 |  | inconclusive: 14.1 µM [inhibitor, partial curve, poor fit]
Cc1cccc(Nc2cc(C)nc3nc(Cc4ccc(Cl)cc4)nn23)c1 |  | inconclusive: 89.1 µM [inhibitor, partial curve, poor fit]
COc1ccc2ccc3c(c2c1)N=C[C@]1(O3)N(C)c2ccccc2C1(C)C |  | active: 70.8 µM
COc1ccccc1NC(=O)C(=O)N/N=C/c1cccs1 |  | inconclusive: 31.6 µM [inhibitor, single point]
COc1ccc(N(C(=O)c2ccccc2OC(C)=O)C(C)C2CC2)cc1 (stereo not given) |  | inconclusive: 39.8 µM [inhibitor, partial curve, poor fit]
COC(CNc1ncnc2sc(-c3ccccc3)cc12)OC |  | inconclusive: 100 µM [inhibitor, partial curve, poor fit]
CCCOC(=O)c1ccc(NC(=O)Cc2cccs2)cc1 |  | inconclusive: 56.2 µM [inhibitor, partial curve, poor fit]
Cc1nn(CCc2nn[nH]n2)c2nc(-c3ccc(C4CCCCC4)cc3)cc(C(F)(F)F)c12 |  | active: 44.7 µM
O=C(Nc1cc(-c2nc3cc(Cl)ccc3o2)ccc1Cl)c1cc2ccccc2o1 | inactive: -14.2% | 
CC1CC(C)C(=O)C(C(CC2CC(=O)NC(=O)C2)OC(=O)CC(=O)c2ccccc2)C1 (stereo not given) | inactive: -12.5% | 
COc1ccc(OC)c(/C=C2\SC(=S)N(NS(=O)(=O)c3ccc(C)cc3)C2=O)c1 |  | active: 79.4 µM
O=C(NCc1ccccc1)c1ccc(Cn2c(=O)c3cccn3c3cccnc32)cc1 | inactive: 9.62% | 
O=C(NCc1ccc(Cl)cc1)c1cc2c(nc3sccn32)s1 |  | inconclusive: 17.8 µM [inhibitor, single point]
Clc1ccccc1Nc1nc(-c2cccnc2)cs1 |  | inconclusive: 100 µM [inhibitor, partial curve, poor fit]
COc1ccc(CCNC(=O)c2cc(-c3ccco3)nc3ccccc23)cc1 |  | active: 8.91 µM
O=C(CCn1cnc2onc(-c3ccc(F)cc3)c2c1=O)N1CCN(c2ccccc2)CC1 | inactive: -6.3% | 
Cc1ccc(OCCSc2nc3ccccc3n2CC(=O)N2CCCCC2)c(C)c1 |  | inconclusive: 44.7 µM [inhibitor, partial curve, poor fit]
COc1cc(NC(=O)/C=C/c2ccccc2)c(C(=O)O)cc1OC |  | inconclusive: 89.1 µM [inhibitor, partial curve, poor fit]
O=C(N/N=C/C=C\c1ccco1)c1ccccn1 |  | inconclusive: 56.2 µM [inhibitor, partial curve, poor fit]

SMILES | activity change, negative = inhibition | Potency
COc1ccc(C2=[N+]([O-])C(C)(C)C(c3ccccc3)=N2)cc1 |  | inconclusive: 89.1 µM [inhibitor, partial curve, poor fit]
CCN(CC)CCNC(=O)c1ccc2c(=O)n3nc(Nc4cccc(Cl)c4C)sc3nc2c1 |  | inconclusive: 79.4 µM [inhibitor, partial curve, poor fit]
CCOc1ccc(C2=Nn3c(nnc3-c3cccnc3)SC2)cc1 |  | inconclusive: 25.1 µM [inhibitor, single point]
Cc1c(O)ccc(/C=N/Nc2nc(-c3cccnc3)nc3ccccc23)c1O |  | inconclusive: 20 µM [inhibitor, full curve]
O=C(O)c1ccc(OC2CSC2)cc1 |  | active: 20 µM
COc1cccc(CNC(=O)CSC2=Nc3ccccc3C3=NC(C)C(=O)N23)c1OC (stereo not given) | inactive: -15.9% | 
C#CCOCCOCCOCCNc1nc(N2CCN(C(=O)[C@H]([C@@H](C)CC)n3cc([C@@H](N)CC(C)C)nn3)CC2)nc(N2CCN(C(=O)[C@H](CCCCN)n3cc([C@@H](N)C(C)CC)nn3)CC2)n1 (stereo not given in full) | inactive: -11.1% | 
Cc1ccc(-n2nc3ccc(NC(=O)Cc4ccc(Cl)cc4)cc3n2)cc1 |  | inconclusive: 89.1 µM [inhibitor, single point]
O=C(Nc1cc(Cl)ccc1-n1cncn1)c1ccc([N+](=O)[O-])o1 |  | inconclusive: 28.2 µM [inhibitor, partial curve, poor fit]
Cc1ccc(S(=O)(=O)/N=C2\C=C(NS(=O)(=O)c3ccc(C)cc3)C(=O)c3ccccc32)cc1 |  | active: 79.4 µM
CCC(=O)Nc1ccc(C(=O)NNC(=O)C(c2ccccc2)c2ccccc2)cc1 |  | inconclusive: 20 µM [inhibitor, partial curve]
COc1ccc(C2CC(=O)Oc3cc(C)c(Cl)c(C)c32)cc1 (stereo not given) | inactive: -8.94% | 
COc1ccc(OC)c(/C=C(\C#N)c2nc3ccccc3c(=O)[nH]2)c1 |  | inconclusive: 89.1 µM [inhibitor, single point]
O=C(Nc1ccc(Cl)cc1)c1cc2nc(-c3ccc4c(c3)OCO4)cc(C(F)(F)F)n2n1 | inactive: -14.4% | 
Nc1nc(N)c2sc3nc4c(cc3c2n1)CCC4 |  | inconclusive: 25.1 µM [inhibitor, partial curve]
N#Cc1nc(-c2ccc(F)cc2)oc1N1CCCC1 |  | inconclusive: 3.55 µM [inhibitor, full curve, poor fit]
O=C(CSc1nc(-c2ccccc2)nc2c1Cc1ccccc1O2)Nc1ccc(C(=O)O)cc1 |  | active: 7.94 µM
C=CCn1c(=O)n2ncnc2c2c3c(sc21)CCCC3 |  | inconclusive: 28.2 µM [inhibitor, single point]
O=C(N/N=C/c1cc(Cl)cc([N+](=O)[O-])c1O)c1ccccc1NS(=O)(=O)c1cccs1 |  | inconclusive: 79.4 µM [inhibitor, partial curve]
O=C(CN1CCN(Cc2ccccc2)CC1)N/N=C\C=C/c1ccco1 | inactive: -5.8% | 
Nc1ccc(-c2nc3nc(N)nc(N)c3nc2-c2ccc(N)cc2)cc1 |  | inconclusive: 25.1 µM [inhibitor, partial curve, poor fit]
COc1cc(Cl)c(NC2=CC(=O)C(=O)c3ccccc32)c(OC)c1 |  | active: 56.2 µM

SMILES | activity change, negative = inhibition | Potency
CC(=O)c1c(C)[nH]c(C(=O)OCC(=O)Nc2ccc3[nH]c(=O)[nH]c3c2)c1C |  | inconclusive: 22.4 µM [inhibitor, partial curve, poor fit]
O=c1cc(CSc2nc3ccccc3c(=O)[nH]2)c2ccc(O)cc2o1 |  | active: 39.8 µM
Cc1c(C(=O)O)cccc1-n1c(C)cc(/C=N/NC(=O)c2cc3ccccc3o2)c1C |  | inconclusive: 56.2 µM [inhibitor, partial curve, poor fit]
CCSc1nnc2c(n1)OC(c1sccc1C)N(C(C)=O)c1ccccc1-2 (stereo not given) | inactive: -12.2% | 
N#C/C(=C\c1ccc(OC(=O)c2cccs2)cc1)c1nc2ccccc2[nH]1 |  | inconclusive: 15.8 µM [inhibitor, partial curve, poor fit]
COc1ccc(C(=O)N/C(=C\c2ccc(OC)c(OC)c2)C(=O)N2CCCCC2)cc1 | inactive: -5.86% | 
COc1ccc(NC(=O)COC(=O)CN2C(=O)C3CCCCC3C2=O)cc1OC (stereo not given) | inactive: -4.99% | 
Nc1cccc2c1C(=O)N(C(=O)/C=C/c1ccc(F)cc1)C2=O |  | inconclusive: 50.1 µM [inhibitor, partial curve, poor fit]
Cc1cccc(C)c1NC(=O)COC(=O)c1ccc(N2CCCC2)c([N+](=O)[O-])c1 |  | inconclusive: 35.5 µM [inhibitor, partial curve, poor fit]
Cc1c(C(=O)N2CCOCC2)c(S(=O)(=O)Nc2ccc(C(C)C)cc2)c(C)n1C | inactive: -24.1% | 
O=C(OC1CCCCC1=O)c1cccc(S(=O)(=O)N2CCCCC2)c1 (stereo not given) |  | inconclusive: 3.16 µM [inhibitor, partial curve, poor fit]
COc1ccc(C(=O)O)cc1S(=O)(=O)Nc1ccc2cn[nH]c2c1 |  | inconclusive: 2.82 µM [inhibitor, full curve, poor fit]
Cc1ccc(-n2c(=O)cc(N3CC(C)OC(C)C3)[nH]c2=O)cc1 (stereo not given) |  | inconclusive: 100 µM [inhibitor, partial curve, poor fit]
NC(=O)c1ccc(NC(=O)COC(=O)c2ccccc2SCC(=O)N2CCCC2)cc1 | inactive: -3.65% | 
CCc1ccc(NC(=O)C2CCN(S(=O)(=O)c3c(C)noc3/C=C/c3ccco3)CC2)cc1 | inactive: -8.8% | 
Cc1ccc(C(=O)O)cc1NC(=S)NC(=O)c1ccc(-c2ccccc2)cc1 | inactive: -8.62% | 
CCN(CC)c1ccc(C(=O)OCc2cc(=O)oc3cc(O)ccc23)cc1 |  | inconclusive: 15.8 µM [inhibitor, full curve, poor fit]
COc1ccc(Cl)cc1-c1nc(-c2ccc(NC(=O)c3cccs3)cc2)no1 |  | inconclusive: 31.6 µM [inhibitor, partial curve, poor fit]
O=C1c2cccc3cccc(c23)C(=O)N1c1ccc2ncccc2c1 |  | inconclusive: 35.5 µM [inhibitor, partial curve]
CC(Sc1nnc(Cc2cccs2)n1C1CCCCC1)C(=O)N1CCc2ccccc21 (stereo not given) |  | inconclusive: 35.5 µM [inhibitor, partial curve, poor fit]
COC(=O)C1=C(C(=O)OC)[C@@H]2N(C)c3ccccc3[C@@]23C[C@@H](C(=O)OC)N(C(=O)c2cccs2)C3=N1 |  | inconclusive: 100 µM [inhibitor, partial curve, poor fit]
